# Laboratory results published in the supplement of paper PMC8728848.
# Some of the results follow.
# B1: LecB LY19 (Pseudomonas aeruginosa) (protein)
# chain: MATQGVFTLPANTQFGVTAFANSAGTQTVNVQVNNETVATFTGQSTNNGIIGSKVLNSGGGGKVQILVSVNGRSSDLVSAQVILANELNFALVGSEDSTDNDYNDAVVVINWPLG
# Assays:
# Assay in all cases: glycan array binding signal (z-score within array); higher = stronger binding
# Settings in all cases: glycan notation: IUPAC condensed, linker removed
# Fuc(a1-3)GlcNAc = target: Fuc(a1-3)GlcNAc
# Outline: (§1)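 Negative Z-scores can be read as non-binding. The Z-score is calculated within each array and then averaged across arrays of one protein sequence at different concentrations or buffers and across linkers. Arrays, 3228 in all, were curated from the Consortium for Functional Glycomics database and kept only where the protein sequence was available.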
# [1] = target: Fuc(a1-3)[Gal(b1-4)]Glc6S
# Outline: as §1
# [2] = target: Fuc(a1-3)[Gal(b1-4)]GlcNAc
# Outline: as §1
# [3] = target: Fuc(a1-3)[Gal(b1-4)]GlcNAc(b1-2)Man
# Outline: as §1
# [4] = target: Fuc(a1-3)[Gal(b1-4)]GlcNAc(b1-2)Man(a1-3)[Fuc(a1-3)[Gal(b1-4)]GlcNAc(b1-2)Man(a1-6)]Man(b1-4)GlcNAc(b1-4)GlcNAc
# Outline: as §1
# [5] = target: Fuc(a1-3)[Gal(b1-4)]GlcNAc(b1-2)Man(a1-3)[Fuc(a1-3)[Gal(b1-4)]GlcNAc(b1-2)Man(a1-6)]Man(b1-4)GlcNAc(b1-4)[Fuc(a1-6)]GlcNAc
# Outline: as §1
# [6] = target: Fuc(a1-3)[Gal(b1-4)]GlcNAc(b1-3)Gal(b1-3)[Fuc(a1-4)]GlcNAc
# Outline: as §1
# [7] = target: Fuc(a1-3)[Gal(b1-4)]GlcNAc(b1-3)Gal(b1-4)[Fuc(a1-3)]GlcNAc
# Outline: as §1
# [8] = target: Fuc(a1-3)[Gal(b1-4)]GlcNAc(b1-3)Gal(b1-4)[Fuc(a1-3)]GlcNAc(b1-3)Gal(b1-4)[Fuc(a1-3)]GlcNAc
# Outline: as §1
# [9] = target: Fuc(a1-3)[Gal(b1-4)]GlcNAc(b1-3)GalNAc
# Outline: as §1
# [10] = target: Fuc(a1-3)[Gal(b1-4)]GlcNAc(b1-6)GalNAc
# Outline: as §1
# [11] = target: Fuc(a1-3)[Gal(b1-4)]GlcNAc(b1-6)[Gal(b1-3)GlcNAc(b1-3)]Gal(b1-4)Glc
# Outline: as §1
# [12] = target: Fuc(a1-3)[Gal(b1-4)]GlcNAc6S
# Outline: as §1
# [13] = target: Fuc(a1-3)[Gal3S(b1-4)]Glc
# Outline: as §1
# [14] = target: Fuc(a1-3)[Gal3S(b1-4)]GlcNAc
# Outline: as §1
# [15] = target: Fuc(a1-3)[Gal3S(b1-4)]GlcNAc6S
# Outline: as §1
# [16] = target: Fuc(a1-3)[GalNAc(b1-4)]GlcNAc
# Outline: as §1
# [17] = target: Fuc(a1-3)[GalNAc(b1-4)]GlcNAc6S
# Outline: as §1
# Fuc(a1-4)GlcNAc = target: Fuc(a1-4)GlcNAc
# Outline: as §1
# Fuc(b1-3)GlcNAc = target: Fuc(b1-3)GlcNAc
# Outline: as §1
# Gal(a1-2)Gal = target: Gal(a1-2)Gal
# Outline: as §1
# Gal(a1-3)Gal = target: Gal(a1-3)Gal
# Outline: as §1
# Gal(a1-3)Gal(b1-3)GlcNAc = target: Gal(a1-3)Gal(b1-3)GlcNAc
# Outline: as §1
# [18] = target: Gal(a1-3)Gal(b1-3)GlcNAc(b1-2)Man
# Outline: as §1
# [19] = target: Gal(a1-3)Gal(b1-3)GlcNAc(b1-2)Man(a1-3)[Gal(a1-3)Gal(b1-3)GlcNAc(b1-2)Man(a1-6)]Man(b1-4)GlcNAc(b1-4)GlcNAc
# Outline: as §1
# [20] = target: Gal(a1-3)Gal(b1-3)GlcNAc(b1-3)GalNAc
# Outline: as §1
# [21] = target: Gal(a1-3)Gal(b1-3)GlcNAc(b1-6)GalNAc
# Outline: as §1
# [22] = target: Gal(a1-3)Gal(b1-3)[Fuc(a1-4)]GlcNAc(b1-2)Man(a1-3)[Gal(a1-3)Gal(b1-3)[Fuc(a1-4)]GlcNAc(b1-2)Man(a1-6)]Man(b1-4)GlcNAc(b1-4)GlcNAc
# Outline: as §1
# Gal(a1-3)Gal(b1-4)Glc = target: Gal(a1-3)Gal(b1-4)Glc
# Outline: as §1
# Gal(a1-3)Gal(b1-4)GlcNAc = target: Gal(a1-3)Gal(b1-4)GlcNAc
# Outline: as §1
# [23] = target: Gal(a1-3)Gal(b1-4)GlcNAc(b1-2)Man
# Outline: as §1
# [24] = target: Gal(a1-3)Gal(b1-4)GlcNAc(b1-2)Man(a1-3)[Gal(a1-3)Gal(b1-4)GlcNAc(b1-2)Man(a1-6)]Man(b1-4)GlcNAc(b1-4)GlcNAc
# Outline: as §1
# [25] = target: Gal(a1-3)Gal(b1-4)GlcNAc(b1-3)GalNAc
# Outline: as §1
# [26] = target: Gal(a1-3)Gal(b1-4)GlcNAc(b1-6)GalNAc
# Outline: as §1
# [27] = target: Gal(a1-3)Gal(b1-4)[Fuc(a1-3)]GlcNAc
# Outline: as §1
# [28] = target: Gal(a1-3)Gal(b1-4)[Fuc(a1-3)]GlcNAc(b1-2)Man(a1-3)[Gal(a1-3)Gal(b1-4)[Fuc(a1-3)]GlcNAc(b1-2)Man(a1-6)]Man(b1-4)GlcNAc(b1-4)GlcNAc
# Outline: as §1
# Gal(a1-3)GalNAc = target: Gal(a1-3)GalNAc
# Outline: as §1
# [29] = target: Gal(a1-3)[Gal(a1-4)]Gal(b1-4)GlcNAc
# Outline: as §1
# [30] = target: Gal(a1-4)Gal(b1-3)GlcNAc(b1-2)Man(a1-3)[Gal(a1-4)Gal(b1-3)GlcNAc(b1-2)Man(a1-6)]Man(b1-4)GlcNAc(b1-4)GlcNAc
# Outline: as §1
# Gal(a1-4)Gal(b1-4)Glc = target: Gal(a1-4)Gal(b1-4)Glc
# Outline: as §1
# Gal(a1-4)Gal(b1-4)GlcNAc = target: Gal(a1-4)Gal(b1-4)GlcNAc
# Outline: as §1
# [31] = target: Gal(a1-4)Gal(b1-4)GlcNAc(b1-2)Man(a1-3)[Gal(a1-4)Gal(b1-4)GlcNAc(b1-2)Man(a1-6)]Man(b1-4)GlcNAc(b1-4)GlcNAc
# Outline: as §1
# [32] = target: Gal(a1-4)Gal(b1-4)GlcNAc(b1-3)Gal(b1-4)Glc
# Outline: as §1
# Gal(a1-4)GlcNAc = target: Gal(a1-4)GlcNAc
# Outline: as §1
# Gal(a1-6)Glc = target: Gal(a1-6)Glc
# Outline: as §1
binder,measurement,setting,value
B1,glycan array binding signal (z-score),Fuc(a1-3)GlcNAc,2.1
same,glycan array binding signal (z-score),[1],-0.031
same,glycan array binding signal (z-score),[2],1.65
same,glycan array binding signal (z-score),[3],0.065
same,glycan array binding signal (z-score),[4],1.1
same,glycan array binding signal (z-score),[5],-0.153
same,glycan array binding signal (z-score),[6],0.312
same,glycan array binding signal (z-score),[7],1.83
same,glycan array binding signal (z-score),[8],2.77
same,glycan array binding signal (z-score),[9],0.487
same,glycan array binding signal (z-score),[10],-0.348
same,glycan array binding signal (z-score),[11],0.618
same,glycan array binding signal (z-score),[12],-0.4
same,glycan array binding signal (z-score),[13],0.602
same,glycan array binding signal (z-score),[14],0.777
same,glycan array binding signal (z-score),[15],0.766
same,glycan array binding signal (z-score),[16],1.08
same,glycan array binding signal (z-score),[17],1.09
same,glycan array binding signal (z-score),Fuc(a1-4)GlcNAc,2.24
same,glycan array binding signal (z-score),Fuc(b1-3)GlcNAc,0.465
same,glycan array binding signal (z-score),Gal(a1-2)Gal,-0.527
same,glycan array binding signal (z-score),Gal(a1-3)Gal,-0.538
same,glycan array binding signal (z-score),Gal(a1-3)Gal(b1-3)GlcNAc,-0.523
same,glycan array binding signal (z-score),[18],-0.556
same,glycan array binding signal (z-score),[19],0.397
same,glycan array binding signal (z-score),[20],-0.551
same,glycan array binding signal (z-score),[21],-0.549
same,glycan array binding signal (z-score),[22],1.36
same,glycan array binding signal (z-score),Gal(a1-3)Gal(b1-4)Glc,-0.512
same,glycan array binding signal (z-score),Gal(a1-3)Gal(b1-4)GlcNAc,-0.541
same,glycan array binding signal (z-score),[23],-0.551
same,glycan array binding signal (z-score),[24],-0.522
same,glycan array binding signal (z-score),[25],-0.55
same,glycan array binding signal (z-score),[26],-0.456
same,glycan array binding signal (z-score),[27],0.633
same,glycan array binding signal (z-score),[28],1.37
same,glycan array binding signal (z-score),Gal(a1-3)GalNAc,-0.543
same,glycan array binding signal (z-score),[29],-0.55
same,glycan array binding signal (z-score),[30],-0.235
same,glycan array binding signal (z-score),Gal(a1-4)Gal(b1-4)Glc,-0.53
same,glycan array binding signal (z-score),Gal(a1-4)Gal(b1-4)GlcNAc,-0.465
same,glycan array binding signal (z-score),[31],-0.53
same,glycan array binding signal (z-score),[32],-0.557
same,glycan array binding signal (z-score),Gal(a1-4)GlcNAc,-0.546
same,glycan array binding signal (z-score),Gal(a1-6)Glc,-0.53
